The whole screen tested about 310,000 compounds, of which about 2,200 (0.71%) showed an effect of 50% or more. The effect is printed as a negative number. Some of the results follow.

In this assay the target is human ether-à-go-go-related gene (hERG) potassium channel (human, UniProt Q12809). In words: primary screen, population patch clamp on CHO cells stably expressing hERG.
Chain of human ether-à-go-go-related gene (hERG) potassium channel (Q12809 whole entry, looked up): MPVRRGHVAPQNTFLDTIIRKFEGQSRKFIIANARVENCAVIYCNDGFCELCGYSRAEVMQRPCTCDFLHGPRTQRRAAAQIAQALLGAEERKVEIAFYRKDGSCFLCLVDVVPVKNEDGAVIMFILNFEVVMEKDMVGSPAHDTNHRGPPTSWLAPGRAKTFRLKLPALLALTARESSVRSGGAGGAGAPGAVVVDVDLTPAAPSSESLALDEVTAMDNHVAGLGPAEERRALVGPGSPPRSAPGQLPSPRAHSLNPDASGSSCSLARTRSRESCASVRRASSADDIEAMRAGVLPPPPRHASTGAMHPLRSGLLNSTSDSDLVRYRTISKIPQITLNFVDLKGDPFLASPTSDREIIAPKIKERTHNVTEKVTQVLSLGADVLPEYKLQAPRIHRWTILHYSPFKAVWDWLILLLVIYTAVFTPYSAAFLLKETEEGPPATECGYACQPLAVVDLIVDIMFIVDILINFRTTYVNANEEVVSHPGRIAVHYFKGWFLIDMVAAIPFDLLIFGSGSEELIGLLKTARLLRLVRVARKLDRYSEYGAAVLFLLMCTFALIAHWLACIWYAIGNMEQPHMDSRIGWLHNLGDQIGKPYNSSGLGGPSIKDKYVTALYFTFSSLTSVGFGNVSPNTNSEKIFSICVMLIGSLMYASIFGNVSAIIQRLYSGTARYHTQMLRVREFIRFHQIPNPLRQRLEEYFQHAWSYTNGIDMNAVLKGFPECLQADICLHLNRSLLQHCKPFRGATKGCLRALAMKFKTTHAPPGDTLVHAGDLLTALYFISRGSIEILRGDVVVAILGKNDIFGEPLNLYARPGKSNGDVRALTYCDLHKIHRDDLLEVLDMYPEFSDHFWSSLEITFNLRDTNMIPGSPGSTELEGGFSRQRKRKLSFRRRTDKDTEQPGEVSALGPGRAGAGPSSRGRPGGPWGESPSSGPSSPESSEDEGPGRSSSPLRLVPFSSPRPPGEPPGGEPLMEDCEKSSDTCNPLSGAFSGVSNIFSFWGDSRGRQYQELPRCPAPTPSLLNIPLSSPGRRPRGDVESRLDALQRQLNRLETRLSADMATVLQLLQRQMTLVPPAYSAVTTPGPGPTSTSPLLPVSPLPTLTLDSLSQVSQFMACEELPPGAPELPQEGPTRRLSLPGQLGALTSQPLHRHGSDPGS
`COc1ccc(Cl)cc1Nc1nc(C)nc2c1nnn2Cc1ccccc1`: the “hERG current change (%, negative = inhibition) at 1uM” value is 12.9%. Next, `Nc1ccc(C(=O)N/N=C/c2ccccc2)cc1`: 2.85%.

As for `CC(C)c1cc(C(C)C)c(S(=O)(=O)N2CCNCC2)c(C(C)C)c1`, the “hERG current change (%, negative = inhibition) at 1uM” value stood at 13.4%. For `COCCCn1c(=O)c2sccc2n2c(CCCC(=O)NCc3ccc(OC)cc3)nnc12`, the “hERG current change (%, negative = inhibition) at 1uM” value is 10.2%. As to `CCOC(=O)N1CCN(C(=O)C2CCC(=O)N(Cc3ccc(Cl)cc3)C2)CC1` (centres unmarked), the “hERG current change (%, negative = inhibition) at 1uM” value turned out to be 1.25%. Next, `Cc1[nH]c2ccccc2c1C(=O)CSC(=S)N1CCOCC1`: 6.63%; `O=C(COC(=O)COc1ccccc1)NCc1ccco1`: 5.39%; `COc1cc(OC)c2cc(C(=O)N/N=C/c3ccccc3O)[nH]c2c1`: 11.6%.

Consider `CCCOc1ccc(NC(=O)C2CC(=O)N3CCCN=C3S2)cc1` (centres unmarked), for which the “hERG current change (%, negative = inhibition) at 1uM” value is on record as -1.16%. Next, `COc1ccc(/C=C\C(=O)NCC(=O)N/N=C/c2ccc(O)cc2O)cc1`: 1.65%; `COc1ccc(C)cc1S(=O)(=O)Nc1cc2c3c(c1)CC(=O)N3CCC2`: 9.54%; `Cc1ccc2c(c1)C(=O)c1ccccc1CS2=O` (centres unmarked): -3.3%. Next, `N=c1c2c3c(sc2nc2n1CCCCC2)CCCC3`: -18.7%; `O=C(NNC(=O)c1ccncc1)Nc1cccc([N+](=O)[O-])c1`: 7.08%; `C=CCN(C(=O)c1csnn1)C(C(=O)NCc1ccc(F)cc1)c1ccccc1` (centres unmarked): 9.41%. In the case of `CC(C)(C)C1CCC2(CC1)NC(=S)N(c1ccccc1)N2` (centres unmarked), the “hERG current change (%, negative = inhibition) at 1uM” value is on record as -0.829%. The value for `O=C(N/N=C/c1ccc([N+](=O)[O-])o1)c1ccncc1` was 8.16%; that for `O=C(CSc1ncn[nH]1)NCc1ccc(Cl)cc1` was 17.5%; that for `Cc1cc(C(=O)N2CCc3ccccc3C2)no1` was 8.58%. `COc1ccc(N2C(=O)CSC23C(=O)Nc2ccccc23)cc1` (centres unmarked): the “hERG current change (%, negative = inhibition) at 1uM” value turned out to be 3.9%. Next, `O=C(NCC(=O)N1CCN(C(=O)c2ccco2)CC1)c1ccc(Br)cc1`: -1.46%; `Cc1cc(C)c(-c2csc(NC(=O)CCCc3nc4ccccc4c(=O)[nH]3)n2)c(C)c1`: 10.9%.

Regarding `O=C(NCCN1CCOCC1)c1ccc(CSc2nc3ccncc3n2Cc2ccc(F)cc2)cc1`, the “hERG current change (%, negative = inhibition) at 1uM” value worked out at 13.7%. The value for `COC(=O)C1=C(c2ccc(OC)cc2)OC(=O)C1(C)C` was 6.03%; that for `COc1cc(C2NC(=O)NC(c3ccccc3)=C2C(C)=O)c(Br)cc1OCC(N)=O` (centres unmarked) was 16.1%; that for `COC(=O)c1ccccc1NC(=O)/C=C/c1cc(OC)c(OC)c(OC)c1` was 3.18%.

Consider `CCC/C=C1/CCCOC(C(=O)NCc2ccc(S(C)(=O)=O)cc2)(C(F)(F)F)C1` (centres unmarked), for which the “hERG current change (%, negative = inhibition) at 1uM” value amounted to 8.45%. The value for `CCN(CC)S(=O)(=O)c1ccc(C(=O)NCCN(C)C)cc1.Cl` was 11.8%. Next, `Cc1sc2ncnc(Oc3ccc(-n4ccnc4)cc3)c2c1C`: -10.2%. Take `COc1cc(C(=O)NN(CCC#N)C2=NS(=O)(=O)c3ccccc32)cc(OC)c1OC`: the “hERG current change (%, negative = inhibition) at 1uM” value turned out to be 12.6%. Take `CCOC(=O)N1CCC(NC(=O)CCC(=O)N2CCOc3ccccc32)CC1`: the “hERG current change (%, negative = inhibition) at 1uM” value came out at 6.7%.

As for `COc1cc(/C=N/NC(N)=O)cc(Br)c1OCc1ccc(C)cc1`, the “hERG current change (%, negative = inhibition) at 1uM” value came to 14.7%.

Consider `O=C(Nc1nccs1)c1ccc(CSc2nnnn2-c2ccccc2)cc1`, for which the “hERG current change (%, negative = inhibition) at 1uM” value is recorded as 11.2%. Consider `Nc1nonc1-c1noc(-c2ccccc2)n1`, for which the “hERG current change (%, negative = inhibition) at 1uM” value was 9.88%. On to `Cc1cnc(C(=O)NCCc2ccc(Cl)cc2)cn1`, for which the “hERG current change (%, negative = inhibition) at 1uM” value is 11.7%.

In the case of `O=C(N1CCOCC1)N1CCC(NC(=O)C23CC4CC(CC(C4)C2)C3)CC1`, the “hERG current change (%, negative = inhibition) at 1uM” value was 15.1%. The value for `COc1ccc(C(=O)N2CCN(c3ccc(F)cc3)CC2)cc1S(=O)(=O)NC1CC1` was -17.3%; that for `Cc1ccccc1NC(=S)N1CCOCC1` was 8.93%. Next, `CS(=O)(=O)O.O.Oc1ccc2c3c1O[C@H]1c4oc5ccccc5c4C[C@@]4(O)[C@@H](C2)N(CC2CC2)CC[C@]314`: -68.1%. For `CC(=O)Oc1cccc(N2C(=O)c3ccc(C(=O)Nc4c[nH]c(=O)[nH]c4=O)cc3C2=O)c1`, the “hERG current change (%, negative = inhibition) at 1uM” value turned out to be 22.4%.

Turning to `Cc1cccc(S(=O)(=O)Nc2nc3ccccc3nc2NCc2ccco2)c1`, the “hERG current change (%, negative = inhibition) at 1uM” value is given as 15.1%. Next, `Cc1csc(NC(=O)C2CC(=O)N(Cc3ccco3)C2)n1` (centres unmarked): 14.1%; `Cc1ccc(-c2[nH]nc3c2C(c2ccoc2)C(C#N)=C(N)O3)cc1C` (centres unmarked): 5.66%. Next, `COc1c(Cl)cc(Cl)cc1C(=O)Nc1ccc(CN2CCCCC2)cc1`: -27.6%.

(Values after paper PMC4336329 (PLoS ONE, 2015).)
